# Test results from the supplement of paper PMC8728848.
# The other results are listed elsewhere or left out.
# How the values were obtained:
# Assay in all cases: glycan array binding signal (z-score within array); higher = stronger binding
# Settings in all cases: glycan notation: IUPAC condensed, linker removed
# [1] = target: Neu5Ac(a2-6)Gal(b1-4)GlcNAc(b1-2)Man(a1-3)[Gal(b1-4)GlcNAc(b1-2)Man(a1-6)]Man(b1-4)GlcNAc(b1-4)GlcNAc
# In short: (§1)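 The binding signal is a Z-score computed within each array. Data were drawn from 3228 arrays in the Consortium for Functional Glycomics database, restricted to those with a known protein sequence. Scores were averaged over arrays of the same protein sequence at different concentrations or buffers, and over linkers, and negative values can be taken as non-binding.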
# [2] = target: Neu5Ac(a2-6)Gal(b1-4)GlcNAc(b1-2)Man(a1-3)[GlcNAc(b1-2)Man(a1-6)]Man(b1-4)GlcNAc(b1-4)GlcNAc
# In short: as §1
# [3] = target: Neu5Ac(a2-6)Gal(b1-4)GlcNAc(b1-2)Man(a1-3)[GlcNAc(b1-2)Man(b1-4)GlcNAc(b1-2)Man(a1-6)]Man(b1-4)GlcNAc(b1-4)GlcNAc
# In short: as §1
# [4] = target: Neu5Ac(a2-6)Gal(b1-4)GlcNAc(b1-2)Man(a1-3)[Neu5Ac(a2-6)Gal(b1-4)GlcNAc(b1-2)Man(a1-6)]Man(b1-4)GlcNAc(b1-4)GlcNAc
# In short: as §1
# [5] = target: Neu5Ac(a2-6)Gal(b1-4)GlcNAc(b1-2)Man(a1-6)[Gal(b1-4)GlcNAc(b1-2)Man(a1-3)]Man(b1-4)GlcNAc(b1-4)GlcNAc
# In short: as §1
# [6] = target: Neu5Ac(a2-6)Gal(b1-4)GlcNAc(b1-2)Man(a1-6)[GlcNAc(b1-2)Man(a1-3)]Man(b1-4)GlcNAc(b1-4)GlcNAc
# In short: as §1
# [7] = target: Neu5Ac(a2-6)Gal(b1-4)GlcNAc(b1-3)Gal(b1-4)GlcNAc
# In short: as §1
# [8] = target: Neu5Ac(a2-6)Gal(b1-4)GlcNAc(b1-3)Gal(b1-4)[Fuc(a1-3)]GlcNAc(b1-3)Gal(b1-4)[Fuc(a1-3)]GlcNAc
# In short: as §1
# [9] = target: Neu5Ac(a2-6)Gal(b1-4)GlcNAc6S
# In short: as §1
# Neu5Ac(a2-6)GalNAc = target: Neu5Ac(a2-6)GalNAc
# In short: as §1
# [10] = target: Neu5Ac(a2-6)GalNAc(b1-4)GlcNAc
# In short: as §1
# Neu5Ac(a2-8)Neu5Ac = target: Neu5Ac(a2-8)Neu5Ac
# In short: as §1
# [11] = target: Neu5Ac(a2-8)Neu5Ac(a2-3)Gal(b1-4)Glc
# In short: as §1
# [12] = target: Neu5Ac(a2-8)Neu5Ac(a2-3)[GalNAc(b1-4)]Gal(b1-4)Glc
# In short: as §1
# [13] = target: Neu5Ac(a2-8)Neu5Ac(a2-8)Neu5Ac
# In short: as §1
# [14] = target: Neu5Ac(a2-8)Neu5Ac(a2-8)Neu5Ac(a2-3)Gal(b1-4)Glc
# In short: as §1
# [15] = target: Neu5Ac(a2-8)Neu5Ac(a2-8)Neu5Ac(a2-3)[GalNAc(b1-4)]Gal(b1-4)Glc
# In short: as §1
# [16] = target: Neu5Ac(a2-8)Neu5Ac(a2-8)Neu5Ac(a2-8)Neu5Ac(a2-3)[GalNAc(b1-4)]Gal(b1-4)Glc
# In short: as §1
# [17] = target: Neu5Ac(b2-6)Gal(b1-4)GlcNAc
# In short: as §1
# Neu5Ac(b2-6)GalNAc = target: Neu5Ac(b2-6)GalNAc
# In short: as §1
# [18] = target: Neu5Ac9Ac(a2-6)Gal(b1-4)GlcNAc
# In short: as §1
# [19] = target: Neu5Gc(a2-3)Gal(b1-3)GlcNAc
# In short: as §1
# [20] = target: Neu5Gc(a2-3)Gal(b1-3)[Fuc(a1-4)]GlcNAc
# In short: as §1
# Neu5Gc(a2-3)Gal(b1-4)Glc = target: Neu5Gc(a2-3)Gal(b1-4)Glc
# In short: as §1
# [21] = target: Neu5Gc(a2-3)Gal(b1-4)GlcNAc
# In short: as §1
# [22] = target: Neu5Gc(a2-3)Gal(b1-4)[Fuc(a1-3)]GlcNAc
# In short: as §1
# [23] = target: Neu5Gc(a2-6)Gal(b1-4)GlcNAc
# In short: as §1
# Neu5Gc(a2-6)GalNAc = target: Neu5Gc(a2-6)GalNAc
# In short: as §1
# [24] = target: Neu5Gc(b2-6)Gal(b1-4)GlcNAc
# In short: as §1
binder,measurement,setting,value
"Factor H (Homo sapiens), P08603 (protein) MRLLAKIICLMLWAICVAEDCNELPPRRNTEILTGSWSDQTYPEGTQAIYKCRPGYRSLGNVIMVCRKGEWVALNPLRKCQKRPCGHPGDTPFGTFTLTGGNVFEYGVKAVYTCNEGYQLLGEINYRECDTDGWTNDIPICEVVKCLPVTAPENGKIVSSAMEPDREYHFGQAVRFVCNSGYKIEGDEEMHCSDDGFWSKEKPKCVEISCKSPDVINGSPISQKIIYKENERFQYKCNMGYEYSERGDAVCTESGWRPLPSCEEKSCDNPYIPNGDYSPLRIKHRTGDEITYQCRNGFYPATRGNTAKCTSTGWIPAPRCTLKPCDYPDIKHGGLYHENMRRPYFPVAVGKYYSYYCDEHFETPSGSYWDHIHCTQDGWSPAVPCLRKCYFPYLENGYNQNYGRKFVQGKSIDVACHPGYALPKAQTTVTCMENGWSPTPRCIRVKTCSKSSIDIENGFISESQYTYALKEKAKYQCKLGYVTADGETSGSITCGKDGWSAQPTCIKSCDIPVFMNARTKNDFTWFKLNDTLDYECHDGYESNTGSTTGSIVCGYNGWSDLPICYERECELPKIDVHLVPDRKKDQYKVGEVLKFSCKPGFTIVGPNSVQCYHFGLSPDLPICKEQVQSCGPPPELLNGNVKEKTKEEYGHSEVVEYYCNPRFLMKGPNKIQCVDGEWTTLPVCIVEESTCGDIPELEHGWAQLSSPPYYYGDSVEFNCSESFTMIGHRSITCIHGVWTQLPQCVAIDKLKKCKSSNLIILEEHLKNKKEFDHNSNIRYRCRGKEGWIHTVCINGRWDPEVNCSMAQIQLCPPPPQIPNSHNMTTTLNYRDGEKVSVLCQENYLIQEGEEITCKDGRWQSIPLCVEKIPCSQPPQIEHGTINSSRSSQESYAHGTKLSYTCEGGFRISEENETTCYMGKWSSPPQCEGLPCKSPPEISHGVVAHMSDSYQYGEEVTYKCFEGFGIDGPAIAKCLGEKWSHPPSCIKTDCLSLPSFENAIPMGEKKDVYKAGEQVTYTCATYYKMDGASNVTCINSRWTGRPTCRDTSCVNPPTVQNAYIVSRQMSKYPSGERVRYQCRSPYEMFGDEEVMCLNGNWTEPPQCKDSTGKCGPPPPIDNGDITSFPLSVYAPASSVEYQCQNLYQLEGNKRITCRNGQWSEPPKCLHPCVISREIMENYNIALRWTAKQKLYSRTGESVEFVCKRGYRLSSRSHTLRTTCWDGKLEYPTCAKR",glycan array binding signal (z-score),[1],-0.129
same,glycan array binding signal (z-score),[2],-0.23
same,glycan array binding signal (z-score),[3],-0.629
same,glycan array binding signal (z-score),[4],-0.439
same,glycan array binding signal (z-score),[5],-0.254
same,glycan array binding signal (z-score),[6],-0.105
same,glycan array binding signal (z-score),[7],-0.102
same,glycan array binding signal (z-score),[8],-0.426
same,glycan array binding signal (z-score),[9],-0.125
same,glycan array binding signal (z-score),Neu5Ac(a2-6)GalNAc,-0.024
same,glycan array binding signal (z-score),[10],-0.545
same,glycan array binding signal (z-score),Neu5Ac(a2-8)Neu5Ac,-0.39
same,glycan array binding signal (z-score),[11],0.162
same,glycan array binding signal (z-score),[12],-0.385
same,glycan array binding signal (z-score),[13],0.243
same,glycan array binding signal (z-score),[14],-0.444
same,glycan array binding signal (z-score),[15],0.747
same,glycan array binding signal (z-score),[16],-0.493
same,glycan array binding signal (z-score),[17],-0.471
same,glycan array binding signal (z-score),Neu5Ac(b2-6)GalNAc,-0.523
same,glycan array binding signal (z-score),[18],-0.353
same,glycan array binding signal (z-score),[19],-0.078
same,glycan array binding signal (z-score),[20],-0.274
same,glycan array binding signal (z-score),Neu5Gc(a2-3)Gal(b1-4)Glc,-0.053
same,glycan array binding signal (z-score),[21],-0.549
same,glycan array binding signal (z-score),[22],-0.473
same,glycan array binding signal (z-score),[23],-0.2
same,glycan array binding signal (z-score),Neu5Gc(a2-6)GalNAc,-0.411
same,glycan array binding signal (z-score),[24],-0.417
